About 110 (3.4%) of roughly 3,200 compounds showed an effect of 50% or more. The list shows a part of the results.

This experiment deals with T1, V. cholerae SAD30.
T1 construct: SAD30
More on the design: species or system S. aureus MSSA476 (TSB) or V. cholerae SAD30 (LB); 384-well bacterial growth screen at 25 uM, OD600 relative to DMSO control. Particulars: relative growth, OD600, LB; 25 µM; inhibitor.
As to `CC(Cl)C(=O)NC1CCN(c2nnnn2C)CC1` (stereo not shown) [7-K08, 2-chloro-N-[1-(1-methyl-1H-1,2,3,4-tetrazol-5-yl)piperidin-4-yl]propanamide], the “% of control remaining” value came out at 79.696%.
The value for `Cc1ccc(C)c(NC(=O)C(C#N)=Cc2ccc(N3CCCCC3)o2)c1` [9-D12, 2-cyano-N-(2,5-dimethylphenyl)-3-[5-(piperidin-1-yl)furan-2-yl]prop-2-enamide] was 54.4528%.
Next, `CC(C)Oc1ccc2[nH]cc(C(=O)CCl)c2c1` [10-E03, 2-chloro-1-[5-(propan-2-yloxy)-1H-indol-3-yl]ethan-1-one]: 105.669%; `CCCCNC(=O)C(C#N)=Cc1cccs1` [9-E17, N-butyl-2-cyano-3-(thiophen-2-yl)prop-2-enamide]: 70.9041%.
Turning to `CC(Cl)C(=O)N[C@H]1CCC(=O)N[C@@H]1c1ccnn1C` (mixture of isomers) [6-B14, rac-2-chloro-N-[(2R,3R)-2-(1-methyl-1H-pyrazol-5-yl)-6-oxopiperidin-3-yl]propanamide], the “% of control remaining” value was determined as 89.1838%.
Next, `C=CC(=O)N(CC1CCOCC1)C1CC1` [2-I08, N-cyclopropyl-N-[(oxan-4-yl)methyl]prop-2-enamide]: 89.7327%; `C=CC(=O)N1CCC(C(=O)N2CCC(NC(=O)NC)CC2)CC1` [2-H18, 3-methyl-1-{1-[1-(prop-2-enoyl)piperidine-4-carbonyl]piperidin-4-yl}urea]: 91.4311%.
The value for `C=CC(=O)NCC1CCN(C)C1=O` (stereo not shown) [2-B05, N-[(1-methyl-2-oxopyrrolidin-3-yl)methyl]prop-2-enamide] was 96.9893%.
The value for `O=C(CCl)Nc1c(Cl)cccc1C(F)(F)F` [5-B04, 2-chloro-N-[2-chloro-6-(trifluoromethyl)phenyl]acetamide] was 98.0141%.
On to `N#C/C(C(=O)Nc1ccc(C(F)(F)F)cc1)=C(/O)C1CC1` [9-N22, (2Z)-2-cyano-3-cyclopropyl-3-hydroxy-N-[4-(trifluoromethyl)phenyl]prop-2-enamide], for which the “% of control remaining” value is 87.0836%.
The value for `C=CC(=O)NCCS(=O)(=O)N1CCOCC1` [2-E14, N-[2-(morpholine-4-sulfonyl)ethyl]prop-2-enamide] was 95.4453%.
Next, `CCOc1ccc(C=C(C#N)C(=O)Nc2cccc3ncccc23)cc1` [8-A07, 2-cyano-3-(4-ethoxyphenyl)-N-(quinolin-5-yl)prop-2-enamide]: 90.0748%; `C=CC(=O)N1CCn2cccc2C1c1ccncc1` (stereo not shown) [3-M03, 1-[1-(pyridin-4-yl)-1H,2H,3H,4H-pyrrolo[1,2-a]pyrazin-2-yl]prop-2-en-1-one]: 109.557%.

These data come from PMC11995724, “Antibiotic target discovery by integrated phenotypic and activity-based profiling of electrophilic fragments” (Cell chemical biology, 2025).
